In all, about 340,000 compounds went through this assay and about 1,000 (0.29%) were called active. The inconclusive results got no clear call from the source; some entries with a clear call stand among them for comparison.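 Rule for the calls: active = mean replicate activation score at least 90 and every replicate individually at or above 90; inconclusive = only one of the two criteria met; inactive = neither criterion met.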
Experiment: miR-122 Renilla sensor signal increase in Huh7, primary screen, miR-122 inhibitor project, cell-based, single point, plate reader (AID 602342);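 note: higher luciferase means less miR-122 activity so hits act as miR-122 inhibitors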
Settings: Huh7 miR-122 Renilla luciferase sensor, 48 h, hits give high values, neutral wells = 0, positive control = 100; at 12.5 µM unless noted

Compound | activation (reporter increase)
O=C(Nc1ccn(CCCNCCN2CCOCC2)c(=O)n1)OCc1ccccc1 | inactive: 2.35%
O=C(NCc1cccs1)c1ccc(Cl)c(S(=O)(=O)N2CCCC2)c1 | inactive: 30%
CC(=O)N1CCOc2ccc(S(=O)(=O)NCCc3ccc(Cl)cc3)cc21 | inconclusive: 96.6%
CN(C)S(=O)(=O)NC(c1ccccc1)c1ccccc1 | inconclusive: 124%
CCN(CC)c1ccc(NC(=O)COc2ccccc2C#N)cc1S(=O)(=O)Nc1ccccc1OC | active: 288%
Cc1ccc(S(=O)(=O)Nc2ccc(C(=O)NCc3ccccn3)cc2)cc1 | inconclusive: 199%
Cc1cc(C)c(S(=O)(=O)NCCn2ccc3ccccc32)c(C)c1 | active: 126%
O=C(Nc1ccccc1F)N1C[C@H]2[C@@H](c3ccccc31)[C@@H](CO)N2C(=O)c1ccc(F)cc1 | active: 240% [at 16.7 µM]
CCn1c2ccccc2c2cc(Nc3cc(C)nc4ncnn34)ccc21 | inconclusive: 91.3%
CN1C(=O)c2cc(NC(=O)Cc3ccccc3)ccc2OC[C@@H]2O[C@H](CC(=O)NC3CCC3)CC[C@@H]21 | active: 125% [at 16.7 µM]
COc1ccc(CNS(=O)(=O)c2cc(-c3cc(C)no3)ccc2C(C)C)cc1 | active: 200%
Cc1ccc(-c2ccc3c(c2)O[C@H](CN(C)S(C)(=O)=O)[C@H](C)CN([C@@H](C)CO)S3(=O)=O)cc1 | inactive: 15.1% [at 16.7 µM]
Cc1cc(C)cc(NC(=O)C2CCN(c3nccs3)CC2)c1 | active: 128%
C[C@@H]1CCCCO[C@@H](CN(C)Cc2ccncc2)[C@@H](C)CN([C@@H](C)CO)C(=O)c2cc(NC(=O)NC3CCCCC3)ccc2O1 | inactive: 4.99% [at 16.7 µM]
COc1cc(C(CCN2CCOCC2)c2c(OC)cc(OC)c3c(-c4ccccc4)cc(=O)oc23)cc(OC)c1OC (stereo not drawn) | inconclusive: 93.1%
COc1ccccc1NS(=O)(=O)c1cccc(NC(=O)c2[nH]c(C)c(C(C)=O)c2C)c1 | inconclusive: 119%
Cc1nc2c(-c3ccc(F)cc3)c(C)nn2c(C)c1CCC(=O)N1CCN(c2ccc(F)cc2)CC1 | inactive: -14%
O=C(N/N=C/c1c[nH]c2ccccc12)c1cccc(O)c1 | inactive: -5.71%
O=C(c1ccc(Cn2c(=O)[nH]c3ccccc3c2=O)cc1)N1CCN(c2ccccc2)CC1 | inactive: 10.2%
COc1ccc(S(=O)(=O)Nc2ccc3c(c2)C(=O)N([C@@H](C)CO)C[C@H](C)[C@@H](CN(C)CC2CC2)OCCCC[C@H](C)O3)cc1 | inactive: 8.5% [at 16.7 µM]
O=S(=O)(c1ccc(F)cc1)N1C[C@H]2[C@@H](c3ccccc31)[C@@H](CO)N2Cc1ccc2c(c1)OCO2 | inconclusive: 100% [at 16.7 µM]
CCOc1ccc(N2C(=O)c3cccnc3C2Nc2ccc(F)cc2)cc1 (stereo not drawn) | inconclusive: 105%
COc1ccccc1CNS(=O)(=O)c1ccc(-c2cc(C)no2)cc1 | inconclusive: 95.2%
CCCN(C)C[C@H]1Oc2ncc(-c3cccc(C(=O)N(C)C)c3)cc2C(=O)N([C@@H](C)CO)C[C@H]1C | inactive: -7.55% [at 16.7 µM]
COc1ccc(CCNC(=O)C2CCC(CNc3c(N4CCCC4)c(=O)c3=O)CC2)cc1OC (stereo not drawn) | inactive: -2.04%

Compound | activation (reporter increase)
Cc1ccc(C2c3c(-c4ccccc4O)n[nH]c3C(=O)N2Cc2ccncc2)cc1 (stereo not drawn) | inconclusive: 93%
O=C(c1cc([N+](=O)[O-])ccc1N1CCOCC1)N1CCN(c2ccccc2)CC1 | inconclusive: 90.3%
C[C@H](CO)N1C[C@H](C)[C@@H](CN(C)Cc2ccncc2)Oc2ccc(NC(=O)Nc3cccc4ccccc34)cc2CC1=O | inconclusive: 97.7% [at 16.7 µM]
C#CCOCCOCCOCCNc1nc(N2CCN(C(=O)C([C@@H](C)O)n3cc([C@@H](N)CCCCN)nn3)CC2)nc(N2CCN(C(=O)[C@H](CO)n3cc([C@@H](N)C(C)C)nn3)CC2)n1 (stereo partly drawn) | inactive: -3.91%
Cc1sc2ncn(CC(=O)N(CC(=O)NC3CCCC3)Cc3cccs3)c(=O)c2c1C | active: 123%
Cc1ccccc1C(=O)Oc1ccc(Br)cc1C(=S)N1CCCC1 | inconclusive: 114%
CCc1ccc(-c2cc(C)no2)cc1S(=O)(=O)Nc1ccc(C)cn1 | inconclusive: 98.4%
CCCCCOC(=O)c1[nH]c2c(c1C)C(=O)CC(c1ccco1)C2 (stereo not drawn) | active: 121%
COc1ccc(NS(=O)(=O)c2ccc(NC(=S)NC(=O)C(C)C)cc2)cc1 | inconclusive: 93.3%
O=S(=O)(/N=C(/Nc1nccs1)c1ccc(F)cc1)c1ccccc1 | inactive: 7.6%
COc1ccc(S(=O)(=O)NC2CCCCC2)c(C)c1C | active: 111%
COc1ccccc1NS(=O)(=O)c1cc(NC(=O)c2cccnc2)ccc1N1CCCCC1 | inconclusive: 94.2%
Cc1ccc(NS(=O)(=O)c2cc(C(=O)N3CCN(C)CC3)ccc2C)cc1C | inconclusive: 94.8%
COc1cccc(C(=O)COc2ccc(NC(=O)c3cccs3)cc2)c1 | inactive: -2.47%
O=C(NCc1cccc(Cl)c1)c1ccc(S(=O)(=O)Nc2cccc(C(F)(F)F)c2)cc1 | inconclusive: 104%
Fc1cccc(Cn2cc(C(=S)N3CCOCC3)c3ccccc32)c1 | active: 176%
C[C@@H]1CN([C@H](C)CO)C(=O)c2cccc(NS(C)(=O)=O)c2O[C@H]1CN(C)Cc1ccc(C(F)(F)F)cc1 | inconclusive: 92.7% [at 16.7 µM]
COc1ccc(NS(=O)(=O)c2cc(NC(=O)[C@@H](NC(=O)c3ccccc3)C(C)C)ccc2C)cc1 | inconclusive: 92%
Cc1cc(C)c(-n2nnnc2SCC(=O)c2cccs2)c(C)c1 | inconclusive: 114%
Cc1cc(OCC(O)CN2CCOCC2)cc(C)c1Cl (stereo not drawn) | inconclusive: 90.7%
CCOC(=O)c1cc(S(=O)(=O)NC2CCCCC2)cn1C | inconclusive: 90.4%
Cc1ccc(NCc2nnc(SCC(=O)Nc3ccccc3)n2CC2CCCO2)c(C)c1 (stereo not drawn) | active: 151%
CN1[C@@H]2Cn3c(cccc3=O)[C@H]1[C@@H](C(=O)NCC1CCCCC1)[C@@H]2CO | inactive: 5.67% [at 16.7 µM]
Cc1ccc(NS(=O)(=O)c2cc3c(cc2C)NC(=O)CO3)cc1 | inconclusive: 92.7%
CCCOC(=O)c1[nH]c2c(c1C)C(=O)CC(c1cccs1)C2 (stereo not drawn) | inconclusive: 94%

Compound | activation (reporter increase)
CCCc1cc(=O)oc2c(CN3CCN(C)CC3)c(O)ccc12 | inactive: -0.235%
COc1ccc(C)cc1NS(=O)(=O)c1ccc2c(c1)N(C)CCO2 | active: 149%
CC1CCN(S(=O)(=O)c2ccc(NC(=O)Cc3cccs3)cc2)CC1 | inconclusive: 97.5%
COc1ccc(S(=O)(=O)NCc2ccccc2)cc1 | active: 113%
O=C(Nc1ccc2c(c1)CCC2)c1cc(S(=O)(=O)Nc2ccc(F)cc2)c(Cl)cc1Cl | inconclusive: 151%
O=C(NCCNC(=O)c1ccccc1)c1ccccc1 | inactive: -0.905%
CCCNc1ncnc2sc(C)c(C)c12 | active: 122%
CCCNC(=O)C[C@H]1CC[C@H]2[C@H](COc3ccc(NC(=O)c4ccc5c(c4)OCO5)cc3C(=O)N2C)O1 | inconclusive: 122% [at 16.7 µM]
COc1ccccc1C(=O)Nc1ccc2c(c1)C(=O)N(C)[C@H]1CC[C@H](CC(=O)NCc3ccc(Cl)c(Cl)c3)O[C@@H]1CO2 | inconclusive: 139% [at 16.7 µM]
O=C(c1cc(COc2ccc(F)cc2Cl)on1)N1CCC(c2ccncc2)CC1 | inactive: -0.234%
COc1ccc(CN(C)C[C@@H]2OCCCC[C@@H](C)Oc3ccc(NC(=O)c4ccccc4)cc3C(=O)N([C@H](C)CO)C[C@@H]2C)cc1 | inconclusive: 94.9% [at 16.7 µM]
C[C@H](CO)N1C[C@H](C)[C@H](CN(C)Cc2ccc(Cl)c(Cl)c2)Oc2c(NC(=O)Nc3ccc4c(c3)OCO4)cccc2C1=O | inconclusive: 91.1% [at 16.7 µM]
O=C(Nc1ccccc1Br)C1CCN(S(=O)(=O)c2cccs2)CC1 | inconclusive: 95.5%
C[C@H](CO)N1C[C@H](C)[C@@H](CN(C)Cc2ccc3c(c2)OCO3)Oc2c(NC(=O)C3CCCCC3)cccc2C1=O | inconclusive: 96.8%
COc1ccc(C2C(Oc3ccccc3)C(=O)N2c2cc(C)ccc2C)cc1OC (stereo not drawn) | inconclusive: 90.1%
Cc1cc(C(=O)Nc2cccc3c2O[C@H](CN(C)Cc2ccc(C(=O)Nc4ccccc4N)cc2)[C@H](C)CN([C@@H](C)CO)C3=O)n(C)n1 | inconclusive: 90.5% [at 16.7 µM]
CC(=O)N1[C@H](CNC(=O)C2CC2)[C@H](c2ccc(-c3ccccc3)cc2)[C@@H]1CO | inconclusive: 150% [at 16.7 µM]
CC(OC(=O)c1cccc(S(=O)(=O)Nc2cccc(C(F)(F)F)c2)c1)C(=O)Nc1ccc2c(c1)OCCO2 (stereo not drawn) | inconclusive: 101%
Cc1cccc(NS(=O)(=O)c2ccc(C)c(C(=O)OCC(=O)Nc3cc(C)on3)c2)c1 | inconclusive: 98.2%
COc1ccccc1N1CCN(C2CC(=O)N(c3cccc(Cl)c3)C2=O)CC1 (stereo not drawn) | inconclusive: 137%
CN(C)Cc1ccccc1CNC(=O)c1cccc(S(=O)(=O)Nc2ccc3c(c2)OCO3)c1 | active: 117%
COCCNC(=O)c1ccccc1NC(=O)c1ccc(Cl)c(S(=O)(=O)Nc2ccc(C)cc2C)c1 | inconclusive: 114%
Cc1ccc(S(=O)(=O)N(C)C[C@H]2Oc3ccc(NC(=O)Nc4ccc(C(F)(F)F)cc4)cc3C(=O)N([C@H](C)CO)C[C@H]2C)cc1 | inconclusive: 93.5% [at 16.7 µM]

— PubChem BioAssay AID602342 (Broad Institute, 2012)
